# Measured values published in PubChem BioAssay AID2147 (National Center for Advancing Translational Sciences (NCATS), 2009).
# The whole screen tested about 230,000 compounds, of which about 3,600 (1.6%) were called active. This list was built around the results that the source calls inconclusive (neither active nor inactive); the mix of calls is not that of the screen. Calls come from the whole dose curve; as a rule, active = well fitted inhibition curve with a large enough effect (not every such curve was filed as active); inconclusive = small, poorly fitted or top-dose-only effect, or another doubt; inactive = no such curve, though single readings can be large or run the other way. A potency beside an inconclusive call is a rough fit, not a confirmed value.
# Molecular target: Lysine-specific demethylase 4E (Homo sapiens) (UniProt B2RXH2)
# Experiment: qHTS Assay for Inhibitors of Human Jumonji Domain Containing 2E (JMJD2E)
# Conditions: JMJD2E catalytic domain, FDH-coupled NADH fluorescence (FDH is formaldehyde dehydrogenase); series mostly up to 57.1 µM; activity change, negative = inhibition: at the top concentration
# Note: nearly all actives have a fitted effect of over 50% in size.
# Potency is the fitted concentration of half-maximal effect; tags give direction and shape of the fitted curve.
# 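Throughout, for activity change, negative = inhibition: 0% = wells with enzyme and -100% = buffer wells without enzyme.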
# UniProt B2RXH2, sequence (B2RXH2 whole entry, looked up, the tested form may be a part): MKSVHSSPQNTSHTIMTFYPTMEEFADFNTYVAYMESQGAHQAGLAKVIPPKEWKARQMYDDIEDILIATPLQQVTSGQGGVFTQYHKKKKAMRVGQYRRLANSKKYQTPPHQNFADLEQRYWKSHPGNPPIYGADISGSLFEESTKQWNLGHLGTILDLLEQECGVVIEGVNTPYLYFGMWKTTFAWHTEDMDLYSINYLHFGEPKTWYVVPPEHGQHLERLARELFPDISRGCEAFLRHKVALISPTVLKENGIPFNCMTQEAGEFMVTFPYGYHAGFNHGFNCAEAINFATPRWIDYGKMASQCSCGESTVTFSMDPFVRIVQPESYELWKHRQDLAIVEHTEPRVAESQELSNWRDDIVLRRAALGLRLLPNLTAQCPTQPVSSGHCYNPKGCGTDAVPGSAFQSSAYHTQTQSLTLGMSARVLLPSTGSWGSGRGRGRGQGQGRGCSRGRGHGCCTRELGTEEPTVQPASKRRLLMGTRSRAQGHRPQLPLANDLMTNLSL
Structure (SMILES),Potency,"activity change, negative = inhibition"
O=C(Cc1cccc2ccccc12)Nc1ccc2oc(-c3ccccc3)nc2c1,"inconclusive: 25.1 µM [inhibitor, partial curve]",
CCCC(=O)N(Cc1cc2cc(C)ccc2[nH]c1=O)c1ccccc1OC,"inconclusive: 25.1 µM [inhibitor, single point]",
Cc1ccc(-c2cc(-c3ccco3)c(C#N)c(=O)[nH]2)cc1,"inconclusive: 28.2 µM [inhibitor, partial curve]",
COc1ccc(CC2S/C(=C(\C#N)C(=O)NCc3ccco3)N(c3ccc(C)cc3)C2=O)cc1 (stereo not given),"inconclusive: 39.8 µM [inhibitor, single point]",
O=C(c1cnn2c(C(F)(F)F)cc(-c3cccs3)nc12)N1CCCC1,"inconclusive: 28.2 µM [inhibitor, partial curve]",
CC(Cc1ccccc1)NC(=O)CSc1nc2nc3c(cc2c(=O)n1-c1ccccc1)COC(C)(C)C3 (stereo not given),,inactive: -3.83%
CCCCCCc1cc2cc(S(=O)(=O)c3ccc(C)cc3)c(=O)oc2cc1O,"inconclusive: 8.91 µM [inhibitor, partial curve]",
CCOC(=O)C1=C(O)C(=O)N(c2ccc(S(N)(=O)=O)cc2)C1c1ccc(Cl)cc1 (stereo not given),"inconclusive: 28.2 µM [inhibitor, partial curve]",
Cc1cccc(C)c1Nc1c(-c2ccc(N3CCOCC3)cc2)nc2cnccn12,"inconclusive: 31.6 µM [inhibitor, partial curve]",
Cc1oc2cc([N+](=O)[O-])c(O)c([N+](=O)[O-])c2c1C(=O)c1ccc(Br)cc1,"inconclusive: 39.8 µM [inhibitor, single point]",
CCOC(=O)C1(CCOc2ccccc2)CCN(Cc2ccncc2)CC1,"inconclusive: 31.6 µM [inhibitor, partial curve]",
Cc1cccc(C(=O)Nc2sc(-c3ccccc3)cc2C(=O)O)c1,"inconclusive: 39.8 µM [inhibitor, single point]",
Cc1ccc(CNC(=O)C2CCN(S(=O)(=O)c3c(C)noc3/C=C/c3ccco3)CC2)cc1,"inconclusive: 22.4 µM [inhibitor, single point]",
Cc1cc2c3ccccc3ncn2n1,"inconclusive: 25.1 µM [inhibitor, partial curve]",
O=C(OCC(=O)N1CCN(c2ccccc2)CC1)c1cccc(Cl)c1,,inactive: 2.69%
Oc1ccc(/C=N/Nc2nc(-c3ccccc3F)nc3ccccc23)c(O)c1,,inactive: -27.2%
O=C(O)c1cc(NCc2ccccc2)ccc1N1CCOCC1,"inconclusive: 39.8 µM [inhibitor, single point]",
CCN(CC)C(=O)CSc1nnc(-c2ccccc2)n1N,,inactive: 2.35%
CCCCNc1nc2c(c(=O)n(C)c(=O)n2C)n1CCC,,inactive: 8.89%
Cc1ccc(-c2cc(C(F)F)nc(S(C)(=O)=O)n2)cc1,"inconclusive: 35.5 µM [inhibitor, partial curve]",
COc1ccc(/C=N/NC(=O)CNC(=O)c2cccs2)cc1,,inactive: 3.6%
CCC(=O)NNc1nc2c(Cl)cccc2s1,,inactive: -12.1%
NC(=O)CC(NC(=S)NCc1ccccc1)C(=O)O (stereo not given),,inactive: -0.81%
O=C(Oc1c(-c2ccccc2)c(=O)n2c3c(cccc13)CC2)c1ccccc1,"inconclusive: 25.1 µM [inhibitor, partial curve]",

Structure (SMILES),Potency,"activity change, negative = inhibition"
COc1cc(OC)c(/C=N/NC(=O)c2ccc(NC(C)=O)cc2)cc1Br,"inconclusive: 31.6 µM [inhibitor, single point]",
COC(=O)C1=C(C)OC(N)=C(C#N)C1c1cc2cccc(C)c2nc1Cl (stereo not given),"inconclusive: 39.8 µM [inhibitor, single point]",
COC(=O)c1cc(C#N)c(NCc2ccccc2)nc1C,"inconclusive: 17.8 µM [inhibitor, partial curve]",
COC(=O)c1ccc(N2C(=O)CC(N(C)Cc3ccccc3)C2=O)cc1 (stereo not given),,inactive: 2.8%
COc1ccc(-n2ncc3c(N4CCc5ccccc54)ncnc32)cc1,"inconclusive: 8.91 µM [inhibitor, single point]",
CC(=O)N1CCC(c2c[nH]c3ccccc23)CC1,"inconclusive: 25.1 µM [inhibitor, partial curve]",
CCN(CCO)Cc1cc(=O)oc2cc3c(cc12)CCC3,"inconclusive: 22.4 µM [inhibitor, single point]",
CCCc1cc(C(=O)Cc2nc3ccccc3s2)c(O)cc1O,"inconclusive: 14.1 µM [inhibitor, partial curve]",
CCCCNC(=O)c1ccccc1Cl,,inactive: -0.538%
Cc1cc(N=Cc2c(O)n(-c3cccc(Cl)c3)c(=O)c3ccccc23)no1,"inconclusive: 17.8 µM [inhibitor, partial curve]",
CC1=C(n2nnc([N+](=O)[O-])n2)C(c2cccnc2)C(C#N)=C(N)O1 (stereo not given),"inconclusive: 28.2 µM [inhibitor, single point]",
CCOC(=O)c1cnn(CCOC(=O)c2cccs2)c1NC(=O)c1cccs1,"inconclusive: 39.8 µM [inhibitor, single point]",
COc1ccc(OCC(=O)OCC(=O)NCc2ccco2)cc1,,inactive: 1.89%
CN(C)S(=O)(=O)c1cccc(NC(=S)N/N=C/c2ccc(O)c(O)c2O)c1,active: 7.94 µM,
O=C(O)/C=C/C(=O)N1CCN(C(c2ccccc2)c2ccccc2)CC1,"inconclusive: 39.8 µM [inhibitor, single point]",
O=C(c1cc2cc(Cl)ccc2oc1=O)N1CCCC1,"inconclusive: 39.8 µM [inhibitor, single point]",
NC(=O)C1CCN(C(=O)COc2cccc3cccnc23)CC1,"inconclusive: 39.8 µM [inhibitor, single point]",
CCc1cc2c(SCC(=O)Nc3cc(C)on3)ncnc2s1,,inactive: -7.13%
O=C(N/N=C/c1cccnc1)c1cc2c(ccc3ccccc32)o1,"inconclusive: 22.4 µM [inhibitor, partial curve]",
CC1CCN(C(=O)C2CCN(S(=O)(=O)c3cc(Cl)ccc3Cl)CC2)CC1,,inactive: 11.2%
CC1(C)CC(=O)CC(C2(O)C(=O)N(Cc3ccccc3)c3ccccc32)O1 (stereo not given),,inactive: -3%
CCN(CC)S(=O)(=O)c1cccc(C(=O)Nc2nc3cc4c(cc3s2)OCCO4)c1,"inconclusive: 35.5 µM [inhibitor, single point]",
COC(=O)c1[nH]c2cc(OC)ccc2c1NC(=O)CN1CCC(C(N)=O)CC1,"inconclusive: 35.5 µM [inhibitor, single point]",
CCc1ccc(S(=O)(=O)NCCc2csc(-c3cccnc3)n2)s1,"inconclusive: 11.2 µM [inhibitor, partial curve]",

Structure (SMILES),Potency,"activity change, negative = inhibition"
N=C1c2c(cc(=O)n3c2[nH]c2ccccc23)CN1CCN1CCOCC1,"inconclusive: 4.47 µM [inhibitor, partial curve]",
CC(Cc1ccc(O)c(O)c1)C(C)Cc1ccc(O)c(O)c1 (stereo not given),active: 22.4 µM,
CCC(=O)Nc1c(-c2ccc(OC)cc2)c(=O)c2ccccc2n1C,"inconclusive: 31.6 µM [inhibitor, partial curve]",
Cc1nc2ccc(S(=O)(=O)NCC(=O)NC(C)c3ccccc3)cc2s1 (stereo not given),,inactive: 6.12%
Cc1ccnc(NS(=O)(=O)Cc2ccccc2)c1,"inconclusive: 28.2 µM [inhibitor, partial curve]",
Cc1nnc2n(-c3ccccc3)c(=O)c3c4c(sc3n12)CCCC4,,inactive: -8.87%
Cc1cccc2nc(-c3cccnc3)c(Nc3ccccc3)n12,"inconclusive: 39.8 µM [inhibitor, single point]",
O=S(=O)(Nc1ccn(-c2ccccc2)n1)c1ccc(Br)cc1,"inconclusive: 39.8 µM [inhibitor, single point]",
Cc1nnc(N2CCOCC2)c2nn(-c3cccc(Cl)c3)c(C)c12,"inconclusive: 35.5 µM [inhibitor, single point]",
Cc1ccc(C)c2[nH]c(=O)c(CCNC(=O)c3ccc(S(=O)(=O)N(C)C)cc3)cc12,,inactive: -11.4%
Cc1ccc(NS(=O)(=O)Cc2ccccc2)nc1,"inconclusive: 8.91 µM [inhibitor, partial curve]",
COc1ccc(Cl)cc1NC(=O)C(C)N1CCN(C/C=C/c2ccccc2)CC1 (stereo not given),"inconclusive: 39.8 µM [inhibitor, single point]",
N/C(=N\OC(=O)Oc1ccccc1)c1cccc([N+](=O)[O-])c1,,inactive: 1.61%
COc1ccc(OC)c(C2C(C(=O)Nc3ccc(F)cc3)=C(C)Nc3nc(CCCO)nn32)c1 (stereo not given),,inactive: -4.54%
COc1ccc(-c2cc(-c3ccccc3)c(C#N)c(SCC(=O)Nc3ncc(C)s3)n2)cc1,"inconclusive: 14.1 µM [inhibitor, partial curve]",
O=C(O)/C=C\C(=O)Nc1ccc(N2CCN(c3ccc(Cl)c(Cl)c3)CC2)cc1,"inconclusive: 11.2 µM [inhibitor, partial curve, poor fit]",
CC(=O)O/N=C(\N)c1ccc(-c2csnn2)cc1,"inconclusive: 39.8 µM [inhibitor, single point]",
COC(=O)c1cc(OC)c(OC)cc1NC(=O)Nc1ccccc1OC,"inconclusive: 28.2 µM [inhibitor, partial curve]",
O=S(=O)(c1ccccc1)c1cnn2c(C(F)(F)F)cc(-c3ccc(F)cc3)nc12,"inconclusive: 28.2 µM [inhibitor, partial curve]",
c1ccc2c(c1)Nc1ccncc1S2,,inactive: -12.3%
COc1ccc(-c2cc(C(=O)OCC(=O)c3c(N)n(C)c(=O)n(C)c3=O)c3ccccc3n2)cc1,"inconclusive: 3.98 µM [inhibitor, full curve]",
CN(C)S(=O)(=O)c1cccc(-c2cn3cc(Cl)ccc3n2)c1,"inconclusive: 28.2 µM [inhibitor, partial curve]",
